Measured values published in the supplement of paper PMC9433436.
± gives the standard deviation of the averaged measurements. Whole data set: some 4,100 sequences, median “relative kcat/Km (krel) vs genomic leader AAAGAU” near 1.7, cut for the highest 2% near 6.5. The entries are a selection whose mix differs from that of the whole data set.

Biological target: T1, E. coli RNase P holoenzyme (M1 P RNA + rnpA protein) (UniProt P0A7Y8)
T1 sequence: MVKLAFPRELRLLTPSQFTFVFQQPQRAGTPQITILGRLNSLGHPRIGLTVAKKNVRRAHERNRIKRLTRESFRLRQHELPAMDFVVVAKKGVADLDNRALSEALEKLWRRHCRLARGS
Assay: relative kcat/Km (krel) vs genomic leader AAAGAU (relative (reference leader = 1)); higher = faster RNase P cleavage
Method: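 HTS-Kin: a pool of ptRNA-Met (21C construct) with all 4096 combinations of 5' leader nucleotides N(-6) to N(-1) was processed in vitro by E. coli RNase P (P RNA + rnpA/C5 protein) under multiple-turnover conditions at 37 C, pH 8, 17.5 mM MgCl2. Residual substrate was Illumina-sequenced at several fractions reacted, and relative kcat/Km (krel) was computed by internal competition kinetics, calibrated to the genomic leader (AAAGAU = 1). The listed hexamer is the varied N(-6)..N(-1) leader (DNA letters), and it sits between a fixed 5' stem-loop flank (GCAUGCACGAAAGUGCGUGCUAUGAA) and the mature tRNA-Met starting GGCUACGUAGCUCAGUUGG. Two technical replicates are averaged.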

[1] = fraction of substrate reacted: ~26-29% (28.66% repeat 1, 26.4% repeat 2)
[2] = fraction of substrate reacted: ~9-10% (9.79% repeat 1, 9.1% repeat 2)
[3] = fraction of substrate reacted: ~13-16% (15.68% repeat 1, 13.17% repeat 2)

| Sequence | relative kcat/Km [1] | relative kcat/Km [2] | relative kcat/Km [3] |
| --- | --- | --- | --- |
| GTGTGG | 0.958 ± 0.79 | – | – |
| CCTTAA | 4.82 ± 1.7 | 3.45 ± 1.6 | 3.21 ± 0.41 |
| TAAAAA | 2.62 ± 0.62 | 2.32 ± 1.7 | 2 ± 0.61 |
| GAGCCG | 0.503 ± 0.095 | – | – |
| CACGGC | 1.55 ± 1.4 | – | – |
| CGAAAC | 3.81 ± 0.8 | 3.1 ± 2.6 | 3.15 ± 0.72 |
| TTGTTA | 3.37 ± 1.2 | 2.11 ± 0.74 | 2.46 ± 0.57 |
| AGCGTT | 1.58 ± 1 | 0.85 ± 0.26 | 1.2 ± 0.48 |
| CCATAA | 3.58 ± 0.78 | 3.55 ± 1.6 | 2.67 ± 0.37 |
| TCAATG | 2.73 ± 0.39 | – | 1.01 ± 0.93 |
| GCAGCC | 0.786 ± 0.28 | – | 0.174 ± 0.14 |
| CGTACT | 1.9 ± 0.12 | 1.12 ± 0.53 | 0.899 ± 0.53 |
| GACGGA | 0.922 ± 0.64 | – | 1.21 ± 1.1 |
| GCACCT | 1.56 ± 1.1 | 1.56 ± 0.91 | 0.955 ± 0.064 |
| GTAATA | 2.4 ± 1 | – | 1.66 ± 0.19 |
| TGGCGC | 0.264 ± 0.044 | – | – |
| AGTGCC | 1.81 ± 0.049 | 2.18 ± 0.42 | 1.93 ± 0.48 |
| TCGATA | 1.97 ± 0.85 | 1.5 ± 0.34 | 1.5 ± 0.96 |
| CGGGCC | – | 0.32 ± 0.084 | – |
| CCTCTG | 1.47 ± 0.38 | – | – |
| AATGCC | 1.48 ± 0.22 | 2.38 ± 1.7 | 1.43 ± 0.1 |
| AGATCA | 2.89 ± 1.4 | 1.57 ± 0.078 | 1.42 ± 0.27 |

| Sequence | relative kcat/Km [1] | relative kcat/Km [2] | relative kcat/Km [3] |
| --- | --- | --- | --- |
| ATCCTA | 4.55 ± 1.7 | 3.22 ± 1.7 | 3.39 ± 0.28 |
| TCTGCG | 1.25 ± 0.26 | – | – |
| TGCACG | 0.926 ± 0.2 | – | – |
| ACACGA | 2.94 ± 0.93 | 2.06 ± 0.13 | 2.5 ± 1.2 |
| GCCACC | 3.85 ± 1.4 | 1.97 ± 0.06 | 2.25 ± 0.33 |
| ACGGTA | – | 0.622 ± 0.39 | 2.17 ± 1.7 |
| TCGACT | 0.985 ± 0.14 | – | – |
| TGGAGG | 0.887 ± 0.34 | – | – |
| CCTGTC | 2.16 ± 0.74 | 1.07 ± 1.1 | 1.91 ± 1.4 |
| CAACCG | 0.953 ± 0.018 | – | – |
| ATTGTA | 2.21 ± 0.86 | 1.33 ± 0.24 | 1.49 ± 0.07 |
| TATGGA | 1.31 ± 1.2 | – | – |
| AGCACC | 3.05 ± 1.8 | 2.38 ± 0.45 | 2.12 ± 1.5 |
| TCACTA | 2.25 ± 0.33 | 1.91 ± 0.81 | 1.58 ± 0.35 |
| TTTTAA | 6.68 ± 2.5 | 4.32 ± 1.7 | 4.88 ± 0.61 |
| GCATAG | 1.87 ± 0.65 | – | 0.443 ± 0.23 |
| GCCGGG | 0.279 ± 0.2 | 0.746 ± 0.37 | – |
| ATGAAA | 3.89 ± 1.4 | 1.99 ± 0.48 | 2.53 ± 0.066 |
| TTGACC | 2.26 ± 0.51 | 1.75 ± 0.21 | 1.64 ± 0.33 |
| AAGCTC | 1.29 ± 0.13 | 1.881 ± 0.011 | 2.12 ± 0.4 |
| CTGTGC | 1.31 ± 0.41 | 0.635 ± 0.093 | 0.681 ± 0.39 |
| ATATTA | 3.23 ± 1.1 | 2.33 ± 1.7 | 2.18 ± 0.77 |

| Sequence | relative kcat/Km [1] | relative kcat/Km [2] | relative kcat/Km [3] |
| --- | --- | --- | --- |
| CGGACT | – | 0.306 ± 0.14 | 0.0461 ± 0.0068 |
| ATCGCG | 3.07 ± 0.91 | 2.62 ± 1.1 | 1.7 ± 0.89 |
| TACAAA | 7.71 ± 3 | 3.89 ± 1.8 | 5.2 ± 0.41 |
| TTACGG | 1.08 ± 0.3 | 1.22 ± 0.84 | – |
| TCGCGA | 2.62 ± 0.93 | 1.14 ± 0.13 | 1.69 ± 1.5 |
| CCGTTT | 3.74 ± 1.6 | 2.55 ± 0.056 | 2.76 ± 0.66 |
| GGAGCA | 1.33 ± 0.18 | 1.92 ± 1.7 | – |
| CTGGTA | 0.466 ± 0.074 | – | – |
| TGCATA | 2.13 ± 0.83 | 0.947 ± 0.33 | 1.23 ± 0.12 |
| TGGAGC | – | – | 0.914 ± 0.2 |
| CTAGTT | 1.24 ± 0.32 | 1.78 ± 0.42 | 1.05 ± 0.21 |
| CAAAAT | 2.84 ± 0.88 | 2.15 ± 1 | 2.38 ± 0.084 |
| GAGCAC | 3.84 ± 1.8 | 2.38 ± 0.81 | 2.19 ± 1.3 |
| GGTATC | 1.77 ± 0.96 | 1.52 ± 0.37 | 1.35 ± 0.36 |
| GCTTCC | 2.18 ± 0.12 | 1.24 ± 0.43 | 1.32 ± 0.13 |
| AGTGTA | 1.63 ± 0.6 | 2.32 ± 1.4 | 1.27 ± 0.85 |
| CGAACC | 1.48 ± 0.11 | 2.51 ± 1.6 | 1.18 ± 0.14 |
| GTCCGC | – | 3.94 ± 0.68 | 5.24 ± 1.4 |
| TTCCGG | 1.68 ± 0.19 | 1.74 ± 1.5 | 0.738 ± 0.38 |
| GCCACT | 2.54 ± 0.06 | – | 1.51 ± 0.53 |
| TGCTGT | 1.11 ± 1.1 | – | 0.877 ± 0.71 |
| CGTGTC | 1.24 ± 0.42 | 0.995 ± 0.46 | 1.16 ± 0.23 |

| Sequence | relative kcat/Km [1] | relative kcat/Km [2] | relative kcat/Km [3] |
| --- | --- | --- | --- |
| GGTGAG | 0.87 ± 0.39 | – | – |
| TACCGG | 1.29 ± 0.22 | – | – |
| GGATTC | 1.37 ± 0.96 | 1.29 ± 0.44 | 1.08 ± 0.39 |
| CTCCTC | 4.95 ± 1.7 | 3 ± 1.3 | 3.49 ± 0.19 |
| TTGTGC | 1.47 ± 0.29 | 1.41 ± 0.67 | 1.16 ± 1 |
| ACCTGA | 5.46 ± 3.1 | 2.56 ± 0.24 | 4.16 ± 0.26 |
| CTAATT | 2.36 ± 0.52 | 2.55 ± 1 | 1.92 ± 0.32 |
| TTCCTA | 5.89 ± 2.4 | 3.35 ± 1.2 | 4.53 ± 0.46 |
| GTGAAT | 2.52 ± 0.91 | 1.67 ± 0.3 | 2.31 ± 0.99 |
| TTGGCA | 1.36 ± 0.94 | 0.832 ± 0.33 | 1.2 ± 0.47 |
| CTACCA | 1.29 ± 0.13 | 1.97 ± 1.1 | 1.07 ± 0.98 |
| AACGTG | 0.741 ± 0.57 | – | – |
| ACTTAG | 2.85 ± 0.73 | 2.33 ± 2.2 | 1.65 ± 0.094 |
| TAGTAT | 6.5 ± 3.2 | 3.26 ± 0.97 | 4.14 ± 0.84 |
| GGCCTA | 1.67 ± 0.45 | 1.06 ± 0.031 | 1.41 ± 0.32 |
| TCCAGC | 6.09 ± 2 | 4.58 ± 2.5 | 4.83 ± 0.15 |
| TTAGCC | 2.69 ± 1.3 | 2.49 ± 0.59 | 2.25 ± 0.4 |
| TAGAAC | 5.64 ± 2.3 | 3.23 ± 1.4 | 4.09 ± 0.35 |
| CTAAAA | 2.89 ± 0.88 | 2.15 ± 0.51 | 2.43 ± 0.18 |
| AACCCG | 0.785 ± 0.38 | – | – |
| GTCTTT | 8.44 ± 3.8 | 4.65 ± 1.2 | 5.87 ± 1.4 |
| TTGGAA | 1.15 ± 0.49 | – | 1.33 ± 0.71 |

| Sequence | relative kcat/Km [1] | relative kcat/Km [2] | relative kcat/Km [3] |
| --- | --- | --- | --- |
| CACTCG | 2.49 ± 0.23 | 0.987 ± 0.92 | 1.52 ± 0.017 |
| TTTGCT | 0.983 ± 0.097 | 0.76 ± 0.28 | 0.721 ± 0.56 |
| GGCATG | 1.488 ± 0.0024 | – | 0.182 ± 0.053 |
| AACATA | 3.86 ± 1.5 | 1.77 ± 0.44 | 2.46 ± 0.31 |
| ATTATG | 1.83 ± 0.24 | – | 0.849 ± 0.7 |
| TCCCAA | 6.94 ± 2.3 | 4.73 ± 3.1 | 4.63 ± 0.2 |
| AAGTCA | 2.02 ± 0.054 | – | 1.4 ± 1 |
| ACTTCC | 2.86 ± 0.76 | 2.52 ± 0.38 | 2.75 ± 0.79 |
| GCCCAA | 5.72 ± 2.9 | 2.42 ± 0.45 | 3.75 ± 1.7 |
| TCATCG | 1.96 ± 0.15 | 1.66 ± 1.1 | 0.943 ± 0.074 |
| GTCGCG | 3.47 ± 0.87 | 2.3 ± 2.2 | 1.77 ± 0.36 |
| TTAGAA | 3.57 ± 1.4 | 2.72 ± 1.5 | 2.61 ± 0.03 |
| ATCTTC | 6.11 ± 2.2 | 3.23 ± 1.1 | 4.36 ± 0.71 |
| TGCGTC | 0.986 ± 0.22 | 0.775 ± 0.3 | 0.777 ± 0.29 |
| TGTACG | 2.29 ± 0.24 | 1.02 ± 0.78 | 1.03 ± 0.19 |
| TTTGTT | 1.3 ± 0.66 | 1.16 ± 0.81 | 1.28 ± 0.98 |
| GGACCA | 1.27 ± 0.29 | 1.5 ± 0.81 | 0.745 ± 0.49 |
| AGAGAT | 1.75 ± 0.4 | 0.682 ± 0.45 | 1.15 ± 0.6 |
